Results on 2 molecules are retold here after paper PMC10293653 (International Journal of Biological Macromolecules, 2023).

In the assay the target is SARS-CoV-2 PLpro (Severe acute respiratory syndrome coronavirus 2, UniProt P0DTD1). The assay is described as follows: PLpro gel-based assay. Type of assay: biochemical. Conditions: 10 μM, 100 μM, and 500 μM; pre-incubation 10 or 20 min.

For `N[C@@H](CC(=O)N1CCn2c(nnc2C(F)(F)F)C1)Cc1cc(F)c(F)cc1F` [Sitagliptin, sitagliptin], the “inhibitory effect on PLpro” value is “unable to see any significant inhibitory effect”. Consider `CC#CCn1c(N2CCC[C@@H](N)C2)nc2c1c(=O)n(Cc1nc(C)c3ccccc3n1)c(=O)n2C` [Linagliptin, linagliptin], for which the “inhibitory effect on PLpro” value was “unable to see any significant inhibitory effect”.
